{"source": "PubChem BioAssay AID504339", "about": "(National Center for Advancing Translational Sciences (NCATS), 2011)", "note": "Where “and” joins values, the source holds several entries; their conditions need not be identical. Identical values can stand only once. The whole screen tested about 390,000 compounds, of which about 17,000 (4.4%) were called active. Inconclusive results, whose numbers are uncertain, are shown with a selection of clear calls. The call rests on the fitted dose curve; in most records, active means well fitted inhibition curve with a large enough effect; inconclusive means small, poorly fitted or top-dose-only effect; inactive means no such curve, though single readings can be large or run the other way. Potencies of inconclusive entries are doubtful fits and often do not repeat. On the % scale 0 is the no-effect control and ±100 the full control effect; potency means the concentration at half of the fitted maximal effect; tags describe the fitted curve by direction and shape."}
{"target": "Lysine-specific demethylase 4A (Homo sapiens) (UniProt O75164)", "sequence (O75164 whole entry, looked up, the tested form may be a part)": "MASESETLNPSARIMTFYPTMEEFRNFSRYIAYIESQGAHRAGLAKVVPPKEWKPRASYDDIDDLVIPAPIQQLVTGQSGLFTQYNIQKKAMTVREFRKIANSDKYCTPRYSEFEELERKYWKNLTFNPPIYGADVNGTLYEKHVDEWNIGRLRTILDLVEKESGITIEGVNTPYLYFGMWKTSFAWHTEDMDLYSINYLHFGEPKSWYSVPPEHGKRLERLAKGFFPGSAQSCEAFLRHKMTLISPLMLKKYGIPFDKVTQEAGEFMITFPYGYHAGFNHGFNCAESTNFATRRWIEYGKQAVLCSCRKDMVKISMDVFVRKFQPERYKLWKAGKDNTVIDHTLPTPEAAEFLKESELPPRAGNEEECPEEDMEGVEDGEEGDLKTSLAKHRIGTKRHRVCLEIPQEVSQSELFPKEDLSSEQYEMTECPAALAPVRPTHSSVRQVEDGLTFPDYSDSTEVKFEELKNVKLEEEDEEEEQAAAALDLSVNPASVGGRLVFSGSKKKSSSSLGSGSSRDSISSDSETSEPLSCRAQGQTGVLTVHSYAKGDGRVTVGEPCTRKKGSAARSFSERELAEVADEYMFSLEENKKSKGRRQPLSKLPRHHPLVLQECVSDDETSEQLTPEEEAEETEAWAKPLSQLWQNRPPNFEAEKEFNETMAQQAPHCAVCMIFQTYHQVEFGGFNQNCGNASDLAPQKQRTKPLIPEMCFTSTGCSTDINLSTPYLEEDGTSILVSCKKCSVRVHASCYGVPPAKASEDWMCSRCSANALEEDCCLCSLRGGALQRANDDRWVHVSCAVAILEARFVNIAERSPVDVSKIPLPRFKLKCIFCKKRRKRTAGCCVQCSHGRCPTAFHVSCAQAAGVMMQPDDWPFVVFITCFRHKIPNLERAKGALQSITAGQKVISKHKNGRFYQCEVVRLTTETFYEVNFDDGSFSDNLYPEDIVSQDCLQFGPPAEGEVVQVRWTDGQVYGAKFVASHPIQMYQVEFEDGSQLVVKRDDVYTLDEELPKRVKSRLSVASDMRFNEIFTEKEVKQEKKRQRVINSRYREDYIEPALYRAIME", "assay": "qHTS Assay for Inhibitors of JMJD2A-Tudor Domain; further: nearly all actives have a fitted effect of over 50% in size", "conditions": "AlphaScreen JMJD2A-Tudor / H3K4me3 peptide binding; activity change, negative = inhibition: at 114 µM (top of the series)"}
{"smiles": "CCCCOc1ccc(C(=O)NCCS(=O)(=O)N2CCN(c3ccc(F)cc3)CC2)cc1", "Potency": "inconclusive: 56.2 µM [inhibitor, partial curve]"}
{"smiles": "Cc1ccc(S(=O)(=O)NC(=O)Nc2cc(C(C)(C)C)on2)cc1", "activity change, negative = inhibition": "inactive: -2.17%"}
{"smiles": "O=S(=O)(NCc1ccccn1)c1ccc(Cl)s1", "Potency": "inconclusive: 2.24 µM [inhibitor, partial curve, poor fit]"}
{"smiles": "Cc1ccc(C)c(-c2[nH]ncc2CN2CCCC(CO)(Cc3ccccc3C)C2)c1", "note": "(configuration not stated)", "Potency": "inconclusive: 89.1 µM [inhibitor, partial curve]"}
{"smiles": "O=C(COc1ncnc2ccccc12)N1CCN(S(=O)(=O)c2ccc(Cl)cc2)CC1", "Potency": "inconclusive: 39.8 µM [inhibitor, single point]"}
{"smiles": "Cc1cc(C)n2nc(C(=O)N3CCOCC3)nc2n1", "activity change, negative = inhibition": "inactive: -4.72% [at 57.1 µM]"}
{"smiles": "S=c1nn[nH]c2ccccc12", "Potency": "active: 11.2 µM"}
{"smiles": "CCCc1nc2sc3c(c2c(=O)[nH]1)CCCC3", "Potency": "inconclusive: 12.6 µM [inhibitor, full curve, poor fit]"}
{"smiles": "CCC(=O)NC(c1ccco1)c1cc(Cl)c2cccnc2c1O", "note": "(configuration not stated)", "Potency": "inconclusive: 56.2 µM [inhibitor, partial curve, poor fit] and inconclusive: 79.4 µM [inhibitor, partial curve]"}
{"smiles": "O=S(=O)(Nc1ccc(F)cc1)N1CCOCC1", "activity change, negative = inhibition": "inactive: 5.63%"}
{"smiles": "Cc1cc(C)n(/N=C/c2ccccc2O)c(=O)c1", "Potency": "inconclusive: 28.2 µM [inhibitor, single point]"}
{"smiles": "Cc1ccc(-c2nc3sc(CCNC(=O)c4ccc(C)c(C)c4)c(C)n3n2)cc1", "Potency": "inconclusive: 50.1 µM [inhibitor, partial curve]"}
{"smiles": "COc1ccc(C2=NS(=O)(=O)N(C)C(C(=O)Nc3ccc(OC)c(OC)c3)=C2)cc1", "Potency": "inconclusive: 44.7 µM [inhibitor, partial curve]"}
{"smiles": "CN(C)S(=O)(=O)c1cccc(NC(=S)NNC(=O)c2cc3ccccc3cc2O)c1", "Potency": "active: 39.8 µM"}
{"smiles": "COc1ccc(N2CCN(S(=O)(=O)c3ccc4c(c3)NC(=O)CC(=O)N4)CC2)cc1", "activity change, negative = inhibition": "inactive: -16.6%"}
{"smiles": "Cc1ccc(Cn2nnnc2CN2CCC(NC(=O)C(C)(C)C)CC2)cc1", "activity change, negative = inhibition": "inactive: -36%"}
{"smiles": "CCn1ccnc1C(O)c1ccc(N(C)C)cc1", "note": "(configuration not stated)", "Potency": "inconclusive: 50.1 µM [inhibitor, partial curve]"}
{"smiles": "COc1cc2c(cc1OC)C(C)N(C(=O)C1=NN(c3cccc(C)c3)C(=O)CC1)CC2", "note": "(configuration not stated)", "activity change, negative = inhibition": "inactive: -12%"}
{"smiles": "Cc1ccc(N2C(=O)CC(Sc3cccs3)C2=O)cc1", "note": "(configuration not stated)", "activity change, negative = inhibition": "inactive: -4.65%"}
{"smiles": "Cc1ccc(C)c(Cn2cc(S(=O)(=O)c3ccc(Cl)cc3)c(=O)c3cc(F)ccc32)c1", "activity change, negative = inhibition": "inactive: 2.98%"}
{"smiles": "CN(C)CCOCCP(=O)(c1ccccc1)c1ccccc1", "activity change, negative = inhibition": "inactive: -23%"}
{"smiles": "CCc1ccc(NC(=O)c2ccc3[nH]c(C)c(C)c3c2)cc1", "activity change, negative = inhibition": "inactive: -18.2%"}
{"smiles": "CCOc1ccc(NC(=O)Cn2c(=O)n(-c3cccc(OC)c3)c(=O)c3c4c(sc32)CCCC4)cc1", "activity change, negative = inhibition": "inactive: -6.83%"}
{"smiles": "COc1ccc(C(=O)CN2CCN(CCN3C(=O)c4cccc5cccc(c45)C3=O)CC2)cc1", "activity change, negative = inhibition": "inactive: -18.4% [at 11.4 µM]"}
{"smiles": "CCCCCC(=O)Nc1cccc(C2=NOC3(C2)C[C@H](C(N)=O)N(C(=O)c2ccccc2C(=O)c2ccccc2)C3)c1", "note": "(some centres not stated)", "Potency": "inconclusive: 56.2 µM [inhibitor, partial curve]"}
{"smiles": "CCOc1ccc(NC(=O)Cn2nnc(-c3ccccc3NC(=O)c3cccs3)n2)cc1", "Potency": "active: 56.2 µM"}
{"smiles": "O=C(O)c1ccccc1NS(=O)(=O)c1ccc(N/N=C/c2cccc(O)c2O)c([N+](=O)[O-])c1", "Potency": "active: 20 µM"}
{"smiles": "O=C1C2(CCCC13COC(c1ccc(O)cc1)OC3)COC(c1ccc(O)cc1)OC2", "note": "(configuration not stated)", "Potency": "inconclusive: 12.6 µM [inhibitor, partial curve, poor fit]"}
{"smiles": "COC/C=C/C1=CC2=CC(=O)C(C)(OC(=O)c3cnc4ccccc4n3)C(=O)C2=CN1CC(C)C", "note": "(configuration not stated)", "Potency": "inconclusive: 89.1 µM [inhibitor, partial curve]"}
{"smiles": "COc1ccc(/C=C2\\SC(=S)N(N3CCOCC3)C2=O)c(OC)c1", "Potency": "inconclusive: 3.16 µM [inhibitor, full curve]"}
{"smiles": "CCSc1ccc2nnc(-c3cccc(F)c3)n2n1", "Potency": "active: 79.4 µM"}
{"smiles": "CC(C)(C)c1ccc(-c2nc(SCCCOc3ccccc3)n3[nH]c(=O)cc3n2)cc1", "Potency": "active: 50.1 µM"}
{"smiles": "CSc1ccc(/C=C/C(=O)c2ccc(O)cc2)cc1", "Potency": "inconclusive: 50.1 µM [inhibitor, partial curve]"}
{"smiles": "CCOc1ccc(/C=N/Nc2nc(=O)[nH]nc2C)cc1OC", "Potency": "inconclusive: 3.98 µM [inhibitor, full curve, poor fit]"}
{"smiles": "CCOC(=O)c1c(NC(=O)c2c(C)noc2C)sc2c1CCCCC2", "activity change, negative = inhibition": "inactive: -25.1%"}
{"smiles": "Oc1ccc(N=Nc2ccccc2)cc1", "Potency": "inconclusive: 44.7 µM [inhibitor, partial curve]"}
{"smiles": "CCOC(=O)Cn1c(=O)n(-c2ccccc2OC)c2nc(-c3cccc(F)c3)nc(C(N)=O)c21", "Potency": "inconclusive: 44.7 µM [inhibitor, partial curve]"}
{"smiles": "Cc1ccc(NC(=O)CSc2nnc(-c3ccco3)c(-c3ccco3)n2)cc1", "Potency": "active: 56.2 µM"}
{"smiles": "COc1nc(N(c2ccccc2)c2ccccc2)nc(-n2ccnc2)n1", "Potency": "inconclusive: 79.4 µM [inhibitor, partial curve]"}
{"smiles": "O=[N+]([O-])c1c(Nc2ccc(O)cc2)cc(Cl)c2nonc12", "Potency": "inconclusive: 79.4 µM [inhibitor, single point]"}
{"smiles": "O=C(O)CSc1ccc(NC(=O)Nc2ccccc2F)cc1", "activity change, negative = inhibition": "inactive: -5.07%"}
{"smiles": "O=C(O)c1ccc(C[n+]2c(-c3ccccc3)csc2Nc2ccccc2)cc1", "Potency": "inconclusive: 56.2 µM [inhibitor, partial curve]"}
{"smiles": "Cc1ccccc1-n1c(SCc2ccc(Cl)cc2)nc2[nH]ncc2c1=O", "Potency": "inconclusive: 44.7 µM [inhibitor, partial curve]"}
{"smiles": "Oc1ccc(N=Nc2ccc3c(c2)OCCO3)c(O)c1", "Potency": "active: 39.8 µM"}
{"smiles": "Cc1ccc2nc(Nc3ccccc3O)nc(-c3ccccc3)c2c1", "Potency": "inconclusive: 44.7 µM [inhibitor, partial curve]"}
{"smiles": "COC(=O)c1sc(=S)n(-c2cc(F)ccc2F)c1N", "Potency": "inconclusive: 56.2 µM [inhibitor, partial curve]"}
{"smiles": "O=C(NCC(=O)N1CCCC1)c1ccc(Cl)cc1", "activity change, negative = inhibition": "inactive: -6.94%"}
{"smiles": "COc1cc(-c2nc3c(c(C)nn3-c3ccccc3)c3cc(OC)c(OC)cc23)ccc1O", "activity change, negative = inhibition": "inactive: -2.97%"}
{"smiles": "CCCCNC(=S)N1CCN(C)CC1", "Potency": "active: 11.2 µM"}
{"smiles": "O=C(CNC(=O)c1ccccc1Br)N/N=C\\c1cc([N+](=O)[O-])cc(Br)c1O", "Potency": "inconclusive: 79.4 µM [inhibitor, partial curve]"}
{"smiles": "COc1cccc(N2CC(NC(=O)c3ccco3)CC2=O)c1", "note": "(configuration not stated)", "activity change, negative = inhibition": "inactive: 2.27%"}
{"smiles": "O=C(CSc1oc(-c2cccs2)nc1S(=O)(=O)c1ccccc1)NC1CCCCC1", "activity change, negative = inhibition": "inactive: -12.9%"}
{"smiles": "C(=Cc1c[nH]c2ccccc12)c1nccc2ccccc12", "Potency": "inconclusive: 89.1 µM [inhibitor, single point]"}
{"smiles": "O=C(O)CC1S/C(=N/N=C/C=C/c2ccccc2)NC1=O", "note": "(configuration not stated)", "Potency": "active: 79.4 µM"}
{"smiles": "Cc1cc(C)cc(N(CC(=O)NCC2CCCO2)C(=O)CN2C(=O)COc3ccccc32)c1", "note": "(configuration not stated)", "Potency": "inconclusive: 17.8 µM [inhibitor, partial curve, poor fit]"}
{"smiles": "CC1CCCN(C(=O)COC(=O)c2cccc(NS(=O)(=O)c3ccccc3)c2)C1", "note": "(configuration not stated)", "activity change, negative = inhibition": "inactive: 1.38%"}
{"smiles": "COc1ccc(CNc2nc(NCc3ccc(OC)cc3)n(C(=O)c3ccncc3)n2)cc1", "Potency": "inconclusive: 35.5 µM [inhibitor, partial curve]"}
{"smiles": "Cc1nn2c(-c3ccccc3)nnc2c2ccccc12", "Potency": "inconclusive: 100 µM [inhibitor, single point]"}
{"smiles": "Cc1nn(CC(=O)Nc2ccc3c(c2)OCO3)c(C)c1Cl", "activity change, negative = inhibition": "inactive: 1.56%"}
{"smiles": "CC(C)c1ccc(CN(Cc2ccco2)c2cnc(S(C)(=O)=O)nc2C(=O)Nc2ccc(F)cc2)cc1", "Potency": "inconclusive: 56.2 µM [inhibitor, partial curve]"}
{"smiles": "Cc1cc(-c2csc(NC(=O)c3ccc(=O)[nH]c3)n2)c(C)n1Cc1ccccc1", "Potency": "inconclusive: 89.1 µM [inhibitor, single point]"}
{"smiles": "COc1ccc(C2c3[nH]c4ccccc4c3CCN2C(=O)c2cn3ccccc3n2)c(F)c1", "note": "(configuration not stated)", "Potency": "inconclusive: 50.1 µM [inhibitor, partial curve]"}
{"smiles": "Cc1ccc2c(c1)C(=O)C(=O)N2Cc1ccc(Cl)cc1", "Potency": "inconclusive: 22.4 µM [inhibitor, full curve]"}
{"smiles": "CC(CN1CCNCC1)(NS(=O)(=O)c1ccccc1)c1ccccc1", "note": "(configuration not stated)", "Potency": "inconclusive: 79.4 µM [inhibitor, partial curve]"}
{"smiles": "COc1cc(CNCc2cc(OC)c(OC)c(OC)c2)cc(OC)c1", "Potency": "active: 20 µM"}
{"smiles": "O=P(OC1CCCCC1)(OC1CCCCC1)C(Nc1ccccc1)c1cccnc1", "note": "(configuration not stated)", "activity change, negative = inhibition": "inactive: -28.1%"}
{"smiles": "COc1cccc(N2CC(NC(=O)CCCc3ccccc3)CC2=O)c1", "note": "(configuration not stated)", "activity change, negative = inhibition": "inactive: -8.12%"}
{"smiles": "Cc1ccc(C2=Nc3ccccc3SC(c3cccc([N+](=O)[O-])c3)C2)cc1", "note": "(configuration not stated)", "Potency": "inconclusive: 31.6 µM [inhibitor, partial curve]"}
{"smiles": "C[C@@H](NC(=O)[C@@H]1Cc2ccccc2CN1)C(=O)Nc1ccc2c(c1)OCCO2", "Potency": "inconclusive: 14.1 µM [inhibitor, full curve]"}
{"smiles": "Cc1ccc(NC(=O)Cn2c(=O)oc3cc(S(=O)(=O)N4CCC(C)CC4)ccc32)cc1C", "Potency": "inconclusive: 89.1 µM [inhibitor, single point]"}
{"smiles": "Cc1nc(SCC(=O)NC(=O)NCc2ccccc2)nc(C)c1C", "activity change, negative = inhibition": "inactive: -19.8%"}
{"smiles": "COc1ccccc1CC(=O)N(CCC#N)CCC#N", "Potency": "inconclusive: 100 µM [inhibitor, single point]"}
